About 2,200 (0.71%) of roughly 310,000 compounds showed an effect of 50% or more. The effect is printed as a negative number. Some of the results follow.
Each compound was assayed against human ether-à-go-go-related gene (hERG) potassium channel (human, UniProt Q12809) (assay: primary screen, population patch clamp on CHO cells stably expressing hERG).
Sequence of human ether-à-go-go-related gene (hERG) potassium channel (Q12809 whole entry, looked up): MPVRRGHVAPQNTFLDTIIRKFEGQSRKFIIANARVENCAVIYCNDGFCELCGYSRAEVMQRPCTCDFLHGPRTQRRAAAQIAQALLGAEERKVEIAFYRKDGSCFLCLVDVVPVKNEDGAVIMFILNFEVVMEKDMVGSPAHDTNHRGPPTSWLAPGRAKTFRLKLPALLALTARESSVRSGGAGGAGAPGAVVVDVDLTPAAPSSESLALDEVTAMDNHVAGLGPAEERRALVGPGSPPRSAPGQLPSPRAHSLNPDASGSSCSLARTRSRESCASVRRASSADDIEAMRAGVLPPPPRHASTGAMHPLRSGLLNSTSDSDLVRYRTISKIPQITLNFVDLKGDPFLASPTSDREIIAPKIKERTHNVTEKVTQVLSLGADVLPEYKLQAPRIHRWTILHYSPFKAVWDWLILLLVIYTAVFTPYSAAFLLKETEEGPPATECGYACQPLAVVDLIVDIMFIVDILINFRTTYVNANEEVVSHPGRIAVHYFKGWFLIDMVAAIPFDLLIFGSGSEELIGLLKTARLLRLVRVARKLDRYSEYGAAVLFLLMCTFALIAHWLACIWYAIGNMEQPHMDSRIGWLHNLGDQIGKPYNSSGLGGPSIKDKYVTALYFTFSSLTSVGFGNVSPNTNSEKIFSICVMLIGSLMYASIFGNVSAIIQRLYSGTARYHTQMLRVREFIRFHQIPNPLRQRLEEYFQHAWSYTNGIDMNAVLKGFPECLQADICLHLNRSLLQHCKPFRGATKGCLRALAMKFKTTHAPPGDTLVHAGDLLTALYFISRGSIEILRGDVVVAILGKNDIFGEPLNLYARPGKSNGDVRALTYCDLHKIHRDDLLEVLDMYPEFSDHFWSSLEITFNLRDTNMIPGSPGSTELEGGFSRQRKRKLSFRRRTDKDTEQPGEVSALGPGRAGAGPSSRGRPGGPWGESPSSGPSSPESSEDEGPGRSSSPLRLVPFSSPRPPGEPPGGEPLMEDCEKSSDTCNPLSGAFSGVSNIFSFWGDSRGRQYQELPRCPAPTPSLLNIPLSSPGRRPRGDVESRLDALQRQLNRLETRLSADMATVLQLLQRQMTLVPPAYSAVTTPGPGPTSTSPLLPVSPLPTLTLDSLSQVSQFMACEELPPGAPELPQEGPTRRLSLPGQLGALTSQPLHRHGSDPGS

Row | SMILES | hERG current change (%, negative = inhibition) at 1uM
1 | O=C(O)c1cc([N+](=O)[O-])ccc1N1CCCCC1 | 1.04%
2 | Cc1ccc(N(CCC#N)C(=O)CN2C(=O)NC(Cc3ccccc3)C2=O)cc1 (stereo not shown) | 7.96%
3 | O=C(COC(=O)Cn1[nH]c(=O)c2ccccc2c1=O)NNC(=O)c1ccc(Br)cc1 | -0.694%
4 | COC(=O)c1ccc2[nH]cc(CCO)c2c1 | 15.5%
5 | O=C(CNCc1ccc(F)cc1)Nc1ccccc1[N+](=O)[O-] | 4.53%
6 | CC1=C(C(=O)OCc2ccccc2)C(c2ccc3ccccc3c2)NC(=O)N1CCCC(=O)O (stereo not shown) | -6.09%
7 | Cc1nc(-c2nc(CC(=O)NNC(=O)c3ccc(Cl)cc3)cs2)cs1 | 9.31%
8 | COc1ccc2[nH]c3c(=O)n(Cc4ccncc4)cnc3c2c1 | 11.3%
9 | CN1CCN(CCC(=O)Nc2ccccc2Cl)CC1 | -3.43%
10 | COc1ccc(-c2nnco2)cc1OC | -4.57%
11 | COc1ccc(NC(=S)N(CCN(C)C)C(C)c2ccncc2)cc1Cl (stereo not shown) | -9.43%
12 | N#Cc1ccc(-c2cccnc2)nc1SCC(=O)Nc1sc2c(c1C#N)CCC2 | 11.9%
13 | CSc1snc(SCC(N)=O)c1C#N | 15.2%
14 | COc1cc(OC)cc(C(=O)NCc2cccnc2)c1 | 7.49%
15 | C=CCn1c(=S)sc2c(=O)[nH]c(C)nc21 | 1.83%
16 | CCn1c(SCc2ccc(C(=O)Nc3nccs3)cc2)nnc1-c1ccc(N)cc1 | 9.7%
17 | N=c1n(Cc2ccccc2)c2ccccc2n1Cc1ccccc1 | -6.88%
18 | Cn1c(=O)n(C/C=C/c2ccccc2)c(=O)c2c1nc1n2CCCN1Cc1ccccc1 | 3.34%
19 | CCCCn1c(SCC(=O)N2CCc3ccccc32)nnc1-c1ccncc1 | -14.6%
20 | CCOc1ccc(-c2cc(CCCC(=O)NCCCOC)no2)cc1 | 2.26%
21 | COc1ccc(CN(C(=O)CSc2nnc(-c3ccc(F)cc3)o2)c2ccc(F)cc2)cc1 | 1.57%
22 | COc1ccc(CNC(=O)C(c2ccc(C)o2)N(Cc2cccs2)C(=O)Cc2cccs2)cc1 (stereo not shown) | 11.8%

Row | SMILES | hERG current change (%, negative = inhibition) at 1uM
23 | O=S(=O)(Nc1nc2ccccc2nc1Nc1ccc(N2CCOCC2)cc1)c1cc(Cl)ccc1Cl | -0.472%
24 | COC(=O)Cn1cnc2sc3c(c2c1=O)CCCC3 | 12.2%
25 | Cc1ccccc1NC(=O)CCN1CCCCCC1 | 8.93%
26 | Cc1ccc(S(=O)(=O)Nc2ccc(S(=O)(=O)Nc3ncccn3)cc2)cc1 | -0.796%
27 | COCCN(C(=O)COC(=O)CCC1CCCC1)c1c(N)n(Cc2ccccc2)c(=O)[nH]c1=O | 9%
28 | NC(=O)COC(=O)c1oc2ccccc2c1CSc1ccc(Cl)cc1 | 0.256%
29 | Cc1ccc(NC(c2ccccc2)c2nc3ccccc3[nH]c2=O)cc1 (stereo not shown) | 9.82%
30 | CCOc1cccc(CN2CCCC(C(=O)c3cc(Cl)ccc3OC)C2)c1O (stereo not shown) | -28.8%
31 | N#CN=C(N)c1ccccc1 | 4.65%
32 | COc1ccc(C(=O)C2CCCN(Cc3sc(N4CCCC4)nc3Cl)C2)c(OC)c1 (stereo not shown) | -3.42%
33 | CC(NC(=O)c1ccc(N(C)C)cc1)C(c1cccs1)N1CCN(C)CC1 (stereo not shown) | 10.9%
34 | Cc1ccc(CNC(=O)C2CCN(S(=O)(=O)c3ccc(Br)s3)CC2)cc1 | -1.03%
35 | Cc1ccc(S(=O)(=O)CCC(=O)Nc2nnc(-c3ccco3)o2)cc1 | 15.4%
36 | COc1ccc(C(=O)NNC(=O)c2ccccc2[N+](=O)[O-])cc1 | 16.9%
37 | COc1ccc(Cl)cc1NC(=O)CN1CCN(S(=O)(=O)N2CCCCC2)CC1 | 6.88%
38 | Cc1ccc(/C=N/NC(=O)c2cccnc2)o1 | 13.9%
39 | C/C(=C(\C#N)C(=O)NCc1ccccc1)N(C)C | 10.6%
40 | CC(C)C(=O)N1CCN(c2ccc([N+](=O)[O-])cc2Cl)CC1 | -5.34%
41 | Cc1cccc(C(=O)N2CCCC(N3CCN(Cc4ccc5c(c4)OCO5)CC3)C2)n1 (stereo not shown) | -14.7%
42 | CCOc1ccc(S(=O)(=O)N2CCOCC2)cc1NC(=O)CN1C(=O)NC(CC)(c2ccccc2)C1=O (stereo not shown) | -14.2%
43 | CCOC(=O)C1CCN(C(=O)C2CCC(=O)N(Cc3cccc(C(F)(F)F)c3)C2)CC1 (stereo not shown) | 7.79%
44 | CCN(C(=O)c1ccc(N2CC3CC(C2)c2cccc(=O)n2C3)c(NC(=O)c2ccncc2)c1)c1cccc(C)c1 (stereo not shown) | 12.9%

Row | SMILES | hERG current change (%, negative = inhibition) at 1uM
45 | O=C(Nc1ccc2c(c1)OCO2)C1CCN(c2ccc(S(=O)(=O)N3CCOCC3)cc2)CC1 | 8.98%
46 | N#Cc1nc(-c2ccccc2Cl)oc1NCc1ccco1 | 7.4%
47 | Cc1cc(NC(=O)c2cc(-c3cccs3)nc3ccccc23)no1 | 11.1%
48 | CCCn1c(SCC(=O)Nc2ccccc2CC)nnc1C(C)C | 8.92%
49 | O=c1[nH]c(=S)[nH]c(O)c1N=Nc1ccc(SC(F)F)cc1 | 17.2%
50 | CCOc1ccccc1NC(=O)N1CCCC1C(=O)NCc1cccs1 (stereo not shown) | 15.4%
51 | CC(=O)Nc1ccccc1NC(=O)c1ccccc1-c1ccccc1 | 12.3%
52 | CC1(C)CC(=O)C2=C(C1)OC(N)=C(C#N)[C@@H]2c1ccccc1[N+](=O)[O-] | -1.91%
53 | Cc1[nH]c(=S)c(C#N)c(C)c1CCC#N | 13.2%
54 | CON(c1nc(Cl)nc(N(C)C)n1)S(=O)(=O)c1ccc(C)cc1 | 6.06%
55 | O=C(CSc1nnc(-c2ccccn2)n1Cc1ccccc1)N1CCOCC1 | 2.91%
56 | CC(C)OC(=O)CSc1nnc(COc2ccc([N+](=O)[O-])cc2)n1C | -34.8%
57 | CN(C)CCCNC(=O)c1cc(Br)ccc1O | 12.2%
58 | COc1ccc(S(=O)(=O)N2CCN(C(=O)C3CCCO3)CC2)cc1 (stereo not shown) | 6%
59 | COC(=O)c1sccc1-n1cc(C#N)c(=O)n(C)c1=O | 17.7%
60 | COc1ccc(CCNC(=O)C2CCN(S(=O)(=O)c3cccc4nonc34)CC2)cc1OC | -3.79%
61 | CC(O)c1ccc2c(c1)OCCOCCN(C)CCOCCO2 (stereo not shown) | 7.18%
62 | Cc1cc(Cl)cc(Br)c1OCCCCn1cncn1 | -0.515%
63 | CC(=O)N(Cc1ccccc1C)c1cccc(C)c1C | 19.6%
64 | CN(CC(=O)Nc1ccc(Cl)cc1)CC(=O)Nc1ccc(F)c(F)c1F | -1.62%
65 | COc1ccc2ccccc2c1/C=N/NC(=O)CC1(C)OCCCO1 | 11.6%
66 | COCCn1c(SCc2nc3ccccc3c(=O)[nH]2)nnc1-c1ccncc1 | 0.523%

Row | SMILES | hERG current change (%, negative = inhibition) at 1uM
67 | Cc1ccc(C)c(NS(=O)(=O)c2ccc(OCC(=O)N3CCOCC3)cc2)c1 | -1.75%
68 | CC(=O)c1cnc2nc(SCc3cccc(C)c3)nn2c1C | 1.09%
69 | O=C(CSc1nnc(-c2cnccn2)n1Cc1ccco1)c1ccc(Cl)c(Cl)c1 | -37.9%
70 | Cc1cccc(C2=N/C(=C\c3cccs3)C(=O)O2)c1 | 18.2%
71 | O=C(Nc1ccc(Cl)c(Cl)c1)C1CC(=O)N(c2ccc(Br)cc2)C1 (stereo not shown) | 14.6%
72 | Cc1cc(NC(=O)CN2CCN(C/C=C/c3ccccc3)CC2)c([N+](=O)[O-])cc1C | 14%
73 | CCn1cc(CN2CCCC(C(=O)Nc3cccc(-c4cc5ccccc5[nH]4)c3)C2)c(C)n1 (stereo not shown) | 7.6%
74 | Cc1ccc(S(=O)(=O)N(C)c2ccc(C(=O)NCC(c3ccco3)N(C)C)cc2)cc1 (stereo not shown) | 9.63%
75 | CC(C)(C)C1CCC(=O)N(CCSc2ccccc2)CC1 (stereo not shown) | -0.131%
76 | CCOC(=O)c1sc(=S)n(-c2cccc(OC)c2)c1N | -10.4%
77 | COc1ccc(-n2c(COc3cccc4ccccc34)nnc2SCC#N)cc1 | 2.57%
78 | CCN1CCN(c2ccc(N3CCN(S(=O)(=O)c4ccc(C)c([N+](=O)[O-])c4)CC3)nn2)CC1 | -12.5%
79 | CCCC(CCC)C(=O)Nc1c[nH]c(=O)[nH]c1=O | 8.89%
80 | N/C(Cc1ccc([N+](=O)[O-])cc1)=N\OC(=O)COc1cccc2ccccc12 | -1.19%
81 | Cc1ccc(S(=O)(=O)/N=C(/c2ccc(F)cc2)N(C)C)cc1 | 12.5%
82 | O=C(CN1C(=O)COc2ccc(S(=O)(=O)N3CCCC3)cc21)Nc1cccc(F)c1 | 12.5%
83 | O=C(Nc1ccc(Cl)cc1)c1ccc(-n2cccn2)c([N+](=O)[O-])c1 | 9.07%
84 | CC(C)(C)CC(=O)Nc1nnc(C(F)(F)F)s1 | 9.48%
85 | Cc1ccc2oc(C(=O)Nc3ccc(S(=O)(=O)Nc4ncccn4)cc3)c(C)c2c1 | 11.6%
86 | O=C(COC(=O)/C=C/c1ccco1)NCCc1ccccc1 | 6.5%
87 | COc1ccc(S(=O)(=O)N2CCCCCC2)cc1C(=O)NCc1cccs1 | -1.76%
88 | CCCCN1C(=O)NC(c2cccc([N+](=O)[O-])c2)C(C(=O)OCC)=C1C (stereo not shown) | 8.07%

From PMC4336329 (PLoS ONE, 2015)
